Assay: Thermal stability of ADC molecules (UNcle: Tm, Tagg, DLS)
Type: physicochemical
Settings: 1CP-152-MMAE vs CD27H10-MMAE
Procedure: The denaturation temperature (I'm value), aggregation temperature (Tagg value) and hydration kinetic diameter of ADC molecules were measured by UNcle multifunctional protein stability analysis system. Wherein, the Tm value was based on endogenous fluorescence spectroscopy method, and was fitted and calculated according to BCM algorithm, the Tagg value was measured by static light scattering (SLS) technology, and the hydration dynamics diameter was measured by dynamic light scattering (DLS) technology. • SEC purity detection: The purity of ADC molecules was analyzed by high performance liquid chromatography (HPLC). • Liquid chromatograph: Shimadzu LC-2030C Plus • chromatographic column: TSKgel G3000SWXL, 7.8×300 mm, 5 μm, TOSOH • mobile phase: 61 mmol/L Na2HPO4, 39 mmol/L NaH2PO4, 200 mmol/L NaCl, pH6.8 • flow rate: 1.0 ml/min • Detection wavelength: UV 220 nm • column temperature: 30° C. • Sample chamber temperature: 10° C. • Injection volume: 20 μg • Isocratic running time: 30 min

B1: 1CP-152-MMAE: humanized antibody 1CP-152 linked to vc-MMAE, target DAR 4 (conjugate)
heavy: EVQLVESGGGLVQPGRSLRLSCTTSGLTFTHYHMSWVRQAPGKGLEWVAIIRNKAYGYTTDYSASVRGRFTISRDDSKSILYLQMNSLKTEDTAVYYCVREGGYGYDGTFAYWGQGTLVTVSS[left out - human IgG1 constant region]
light: DIQMTQSPSSLSASVGDRVTITCRASESVDNYGISFMNWFQQKPGQAPKLLIYAASNQGSGVPSRFSGSGSGTDFTLTISSMQPEDFATYYCQQSKEVPRTFGGGTKVEIKRTVAAPSVFIFPPSDEQLKSGTASVVCLLNNFYPREAKVQWKVDNALQSGNSQESVTEQDSKDSTYSLSSTLTLSKADYEKHKVYACEVTHQGLSSPVTKSFNRGEC
  difference in Tagg values between the two: 4 °C
